According to a collection of fitness landscapes (doi:10.1016/j.celrep.2020.107928):
In all, about 81,000 sequences were measured (“one-hybrid fitness for binding parS DNA”: median about -0.17, highest 2% from about 0.51 on). The list shows a part of the results.

B1: Caulobacter ParB omega fusion; a variant is named by its letters at X, in order, B8GW30 (parent)
chain: MESVVVGEPGMSEGRRGLGRGLSALLGEVDAAPAQAPGEQLGGSREAPIEILQRNPDQPRRTFREEDLEDLSNSIREKGVLQPILVRPSPDTAGEYQIVAGERAWRAAQRAGLKTVPIMVRELDDLAVLEIGIIENVQRADLNVLEEALSYKVLMEKFERTQENIAQTIGKSXSHVANXMRLLXLPDEVQSYLVSGELTAXHARAIAAAADPVALAKQIIEGGLSVRETEALARKAPNLSAGKSKGGRPPRVKDTDTQALESDLSSVLGLDVSIDHRGSTGTLTITYATLEQLDDLCNRLTRGI

Variants of: B1
Experiment: one-hybrid fitness for binding parS DNA (scaled: cognate 1, non-cognate 0); higher = stronger binding
Settings: with parS DNA site
How it was run: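 In E. coli USO, a HIS3 reporter with its site placed 19 bp from the promoter was used to select Caulobacter ParB variants randomised at four specificity codons. Growth lasted 48 hours at 37°C on histidine-free M9 containing 0.1 mM IPTG and 5 mM 3-AT. Fitness was taken as the log change in variant-to-wild-type read ratio from Illumina sequencing of pre- and post-selection plasmids, rescaled between the non-cognate and cognate sites.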

one-hybrid fitness for binding parS DNA, 0.246:
RWMY

one-hybrid fitness for binding parS DNA, 0.999:
RVSG

one-hybrid fitness for binding parS DNA, 0.258:
RAHW

one-hybrid fitness for binding parS DNA, ≤ 0.2:
FVKH
LNAW
RYYK
VWDM
MIIC
VAAW
CVCG
QISH
AVMH
MCMN
PKHI
IPRY
VDRS
AAYA
HNYQ
HDND
RDWG
FLDY
FLIG
IMNL
AKPT
CNVS
QMRS
SHVF
AHSV
YSNK
CVDN
MYLR
CPPW
NMHI
RMTE
EYYV
PLFG
QVDA
DTKA
ITAT
ATTN
RFSP
GYLD
NLQI
ISQE
TVRM
MDME
PRCH
PVKN
RMCI
ANHD
DMGM
VKRI
HTYG
LRWN
QPHV
CVNR
RNYV
FPIE
DQPH
WFVC
DYQS
RLRR
NYTS
YAYR
FFNG
ACVG
PAKL
QRLL
DVTE
ALVR
RGGI
QTGK
KRLT
CRRK
AWGC
DSRR
TPDL
PAHD
ALFN
QVIH
TNGD
NFRN
GSDT
WAHD
SQTY
QPMT
SLET
CHSC
VKKR
QEDR
QERW
NPQP
KYRG
AVTV
KAVT
DYWT
GMPD
SVNI
HVEY
QKYF
CHIA
PHWV
MRLC
FTSW
TQAT
QHLT
ISFE
GVQL
HSLS
NFST
ILRS
EASD
CDAE
KRSE
KQYR
DVET
SPCE
QNLR
KTDD
SPND
TFNR
ELKS
QVNA
TVWY
SNCR
TPIV
NQVG
MVSW
AWPL
DTRR
PCPI
LARI
PIGG
RMKR
QDRG
KSSV
CPVR
DAES
QTWM
MTYC
QMWR
SARD
SLWT
DRQT
QCSR
KLIG
PRYI
QEKL
ACPC
HKLC
HTIP
LSKY
PPLV
LNPN
ADHF
RFKV
QTIE
AGSM
YGCR
QFYL
PSPV
SRLS
QSIR
AAHE
CLFS
KQNG
KHNA
AGNT
WWAC
DNMR
GTTP
NQMT
SDLQ
TQQR
VTVG
CRCR
ETWN
EIHV
SATQ
RRWH
RQWL
LQQG
PYNN
TMCR
LWKA
DMTE
HDHS
RSYP
REPR
EPTV
QTPI
DNNG
RNIV

one-hybrid fitness for binding parS DNA, 0.269:
RSIN

one-hybrid fitness for binding parS DNA, 0.212:
YRAG
